Source: the supplement of paper PMC10126150
Sequences with one replicate were seen in a single cluster, so their values are uncertain.

Test system: ATP
Experiment: switch fluorescence ratio, 500 uM ATP over buffer (Cy3 cluster intensity, sum of 5 cycles each) (fold (ratio)); higher = stronger signal-on switching upon ATP binding; sequences stand for … in TCGTCGGCAGCGTCAGATGTGTATAAGAGACAGTTTTTTTTTTTTTTTTTTTTTTTTT…TC
Conditions: aptamer strand: ATP DNA aptamer (quencher-CACCTGGGGGAGTATTGCGGAGGAAGG + anchor), 100 nM annealed; ATP concentration: 500 uM; one replicate
How it was run: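 Per cluster, summed Cy3 intensity from the target cycles was divided by that from the buffer cycles to give the fluorescence ratio, then averaged per switch-domain sequence. Clusters outside 100-1000 RFU were excluded. The Cy3-labelled switching-strand clusters, on a modified Illumina MiSeq flow-cell, were annealed to 100 nM quencher-labelled ATP aptamer and imaged in selection buffer, then after 15 min with 500 uM ATP at 22 °C, for five cycles with NaOH stripping and re-annealing between them.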
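Note: ATP exposure 15 min at 22 °C before imaging.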

Sequence	switch fluorescence ratio
GATAAAGACC	1.01
CCATCCTGCT	1.09
GAACAATCGT	0.992
ACCTCAGTGC	1.52
CGCGTCGGTT	1.06
TCTTACAGA	1
CATACTTGTT	1
GGGCGAGTAG	1
GTTCGAGCGT	1.04
ACGCTGTTGC	1.06
GCATTCAGAT	0.971
AAACGGAAAC	1.25
TGCGCGTGCT	1.02
AGAAGGGGTG	0.993
ATTCCGATAT	1.08
TAAATGGTGT	0.982
TATGTAGCGG	1.08
ATTGCTGGAA	1.02
TTACGAAGGA	0.991
CCCCTTTGAC	1.09
ACATATCAAA	1.05
TTCGGGTAGG	1.01
GGCACCATCT	1.03

Sequence	switch fluorescence ratio
CCGTGTACGA	1.16
GCAGTATGTT	0.982
TATTGATTGC	0.999
AGGCTGGAA	1.01
CGCGTGTTGG	0.968
CCGTGGACGG	1.03
GTTGGTGCAA	1.02
CGATCGCTCT	1.3
CCCATAATTC	1.07
CCGTCGTCGG	1.02
CTCGCACAGC	1.95
CCTGTCTCAC	1.05
ATGTAAAGAG	0.948
ATACCTCACC	1.67
AAATTGTATG	0.983
TGAAATGAGC	1.04
GGGGACGCGC	0.982
GAGGTTAAA	1.04
ATCCAACCGA	1.06
CCGGTTTTT	0.985
TGTCTAGAGG	0.995
TTTTGCAGTC	1.28
GAACGTCGTA	1.03

Sequence	switch fluorescence ratio
CCAAGCGCA	1.61
AACCATGCTA	1.03
GCTAAAAAAC	1.02
GCAGAACATC	1.03
AGACGGAGTA	0.999
TCAGCCGACG	1.09
CGCGTAGA	1.04
TGGCACTTAA	1.02
TTGTTCCAGT	0.99
AGTACCCTCG	1.01
GAACGCTAAA	1.64
CCTAGTCAAT	3.97
TTGGACCCGG	1.08
TAGCATATA	1.15
TATGGAAACA	0.963
CCGAAGAATT	1.6
CGGGTCATCT	0.998
TCCAGTTTTG	1
TATGTTTGTC	1.02
AACCACGAGG	1.04
GTCAATGT	1.03
AGGTAGTCGG	0.981
GGTTTACTTG	1.01

Sequence	switch fluorescence ratio
CATGATAAAG	0.986
TTCGAGAATA	1
TACGCCAACA	1.18
TATAGAGGGC	1.03
GGGGAGCCGC	1.07
CCACAGTCGG	1.08
GGTTTCAAAC	1.02
CAAGTTACGG	1.06
CTGTGATTCG	1.01
GACAACTTGG	0.967
GTGTTGGACG	1.02
GCGATATGG	1.03
GACCAGTTCC	1.21
CCTAGTTAGA	1.02
AATTCCCGG	0.971
ATGTATCCG	0.919
CGGTTAGGAC	1
CCTAAAGAAA	1.38
CCCGGCATT	1.65
ATCGAAAGCT	1.22
CAAATTTTAG	0.989
CTTATTTATC	0.966
ATCCGCCGAA	1.04

Sequence	switch fluorescence ratio
CCGATACTAG	1.33
GGATGTATGC	1.1
AACATCGAAT	1.04
AACAAGTCTG	1.12
GAATCTAAA	0.98
CCGGTCGTAT	1.09
AATTTCCATC	1
GCTGATAGT	1.02
ACACTCGGGG	0.98
TTCATGCAAG	1.02
CTTCGAAGAG	1
TGACTGCCCA	1.1
TGGCATTAAA	0.964
ATTGTATGCT	0.999
TTAAATAGAA	1.01
AATTAAAGC	0.97
TATGCTCATG	0.966
GACGGTAAGG	1.02
GGGGTCTTGT	0.994
AAAGTGAAGC	1
GATTAAGTGA	1.02
CCCGGCTCGT	1.02
TGTCTGACCG	0.953

Sequence	switch fluorescence ratio
AATCATCATG	1.18
GGAAGATGGA	0.917
GAATGCAACC	1.3
TGGAAATCAT	1.01
GCTCAGTCCT	0.989
AGACGTTGCA	0.975
GAATTATTA	0.99
ATGTTTACGT	0.999
GCCCGGCCGC	1.03
ATTAACACAG	1.05
TTTAACCTCT	0.96
CTGATATGAT	1
TCGGTAGCTA	1.11
CAAGGGCTAT	0.99
TAATACCGGA	1.04
TTAGGCACCA	1.01
CCAATTTCTT	1.04
AAGGTGGTC	1.03
AGATGTATTA	0.952
AAAAATGTCT	0.961
TATTCTGCCC	1.02
CGGTGTTCGT	1.03
CACCGTAGAT	1.25

Sequence	switch fluorescence ratio
GCCTATGTTT	0.981
GCGGGCCCAG	1.02
GCTATACTCG	5.15
TGTAGTTCAT	1.01
CCTAGCCAT	1.4
AGTATGGCAA	1.06
CATAGGGTAT	0.951
TATTAGAACG	0.973
TCGGATCGAA	1
ACCCACCACT	1.37
CGGAAGTCAG	0.994
AATTGTTAGC	0.99
GGGTGATCAC	1.01
CAACACATTC	1.25
TTAATGCGGA	0.987
CATCGTGCGG	1.01
AGGAGGCCCG	1.12
ATATTGCGGC	1.01
AATTCGGCCC	1.01
